Reference: the RNAGym collection of RNA variant scans (doi:10.1101/gad.245936.114)
Variants at the background level are over-represented here.

B1: tRNA (parent)
chain: CUCUCGGUAGCCAAGUUGGUUUAAGGCGCAAGACUUUAAUUUAUCACUACGAAAUCUUGAGAUCGGGCGUUCGACUCGCCCCCGGGAGAUUUUUUCCUCGAGCAA

Variants of: B1
Assay: nonsense suppression (GFP-seq) (ratio to wild type); higher = more function; SUP4oc tRNA, yeast GFP reporter sort-seq
Outline: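 To measure nonsense suppression, tRNA variants from a library carrying ~3% random mutations were integrated into the yeast genome alongside RFP and a GFP ochre reporter under galactose control. Growth took place in raffinose/galactose medium supplemented with 80 mg/L adenine, followed by sorting into GFP/RFP bins and Illumina sequencing of each bin (phred ≥30). For each variant with ≥100 reads and ≥30 cells, the bin median GFP/RFP values were weighted by its estimated cell share per bin and referenced to the unmutated parent tRNA.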

Point of comparison: A13U C29U C81U, nonsense suppression 0.0757. Against it:
- A13U C27A G73A — lower, ≤ 0.026
- A13U C29A C82A — lower, ≤ 0.026
- A13U C29G A30U C56A — lower, ≤ 0.026
- A13U C29U — higher, 0.751
- A13U C29U C82A G86U — lower, ≤ 0.026
- A13U C34A — lower, ≤ 0.026
- A13U C34A C77A — lower, ≤ 0.026
- A13U C34G G69C — lower, ≤ 0.026
- A13U C56A — lower, ≤ 0.026
- A13U C64G — lower, ≤ 0.026
- A13U C64G U70G — lower, ≤ 0.026
- A13U C68U C79U — lower, ≤ 0.026
- A13U C72G U76A — lower, ≤ 0.026
- A13U C75A — higher, 0.866
- A13U C79A G84U — lower, ≤ 0.026
- A13U C83U — higher, 0.157
- A13U G15A — lower, 0.046
- A13U G15A C27G — lower, ≤ 0.026
- A13U G15C — lower, ≤ 0.026
- A13U G15U C64A G86C — lower, ≤ 0.026
- A13U G15U C75U — lower, ≤ 0.026
- A13U G15U G65C — lower, ≤ 0.026
- A13U G15U U16A A60U G67U — lower, ≤ 0.026
- A13U G18A G78A — lower, ≤ 0.026
- A13U G18U — lower, ≤ 0.026
- A13U G19U — lower, ≤ 0.026
- A13U G19U U21G A62C U63A — lower, ≤ 0.026
- A13U G25A G59C — lower, ≤ 0.026
- A13U G28C — higher, 0.227
- A13U G28U G73A — lower, ≤ 0.026
- A13U G59C U63C C83G — lower, ≤ 0.026
- A13U G61A G67U — lower, ≤ 0.026
- A13U G61U — higher, 0.447
- A13U G61U G66C U70A — lower, ≤ 0.026
- A13U G65A — lower, ≤ 0.026
- A13U G65C — lower, ≤ 0.026
- A13U G65C C82A — lower, ≤ 0.026
- A13U G65U G84U — lower, ≤ 0.026
- A13U G67U — lower, ≤ 0.026
- A13U G69C — lower, 0.0304
- A13U G73U A87G — lower, ≤ 0.026
- A13U G78A — higher, 0.179
- A13U G86A — lower, 0.0315
- A13U U16A — higher, 0.837
- A13U U16C G67U G69A G78A — lower, ≤ 0.026
- A13U U16C U63G — higher, 0.18
- A13U U17G A33C — lower, ≤ 0.026
- A13U U20C C81G G84A — lower, ≤ 0.026
- A13U U21C U35C C68U G84U — lower, ≤ 0.026
- A13U U21G — higher, 0.763
- A13U U22A C68G — lower, ≤ 0.026
- A13U U22C G61C G84C — lower, ≤ 0.026
- A13U U22C G78A C83U G86U — lower, ≤ 0.026
- A13U U22G — higher, 1.06
- A13U U22G A23C — lower, ≤ 0.026
- A13U U57A G65A — lower, ≤ 0.026
- A13U U70C G84C — lower, ≤ 0.026
- A13U U70C U71G A74U — lower, ≤ 0.026
- A13U U76C — higher, 0.836
- A14C A23U A89U — lower, ≤ 0.026
- A14C A23U G32A U35C G66A G69A U70C — lower, ≤ 0.026
- A14C A24G A30U G66A C77A G86U — lower, ≤ 0.026
- A14C A24G G69C — lower, ≤ 0.026
- A14C A24U — lower, ≤ 0.026
- A14C A31G A74U C80G — lower, ≤ 0.026
- A14C A31G C81A — lower, ≤ 0.026
- A14C A33G U55G C79A — lower, ≤ 0.026
- A14C A54C — lower, ≤ 0.026
- A14C A60C A87C — lower, ≤ 0.026
- A14C A62C G66C G73U — lower, ≤ 0.026
- A14C A62U — lower, ≤ 0.026
- A14C A87C — lower, ≤ 0.026
- A14C C27G G28C G86U — lower, ≤ 0.026
- A14C C27U — lower, ≤ 0.026
- A14C C27U C81G — lower, ≤ 0.026
- A14C C29A C56U — lower, ≤ 0.026
- A14C C29U C56U — lower, ≤ 0.026
- A14C C34G U76C — lower, ≤ 0.026
- A14C C56A C81G — lower, ≤ 0.026
- A14C C56G A87G — lower, ≤ 0.026
- A14C C64U — lower, ≤ 0.026
- A14C C68G — lower, ≤ 0.026
- A14C C79U — lower, ≤ 0.026
- A14C C81A G85A — lower, ≤ 0.026
- A14C G15A G66C — lower, ≤ 0.026
- A14C G15C — lower, ≤ 0.026
- A14C G15C C56U — lower, ≤ 0.026
- A14C G15C U16G U22G C83A — lower, ≤ 0.026
- A14C G18C — lower, ≤ 0.026
- A14C G19C A30U U70G C82A — lower, ≤ 0.026
- A14C G25C C29G G84U — lower, ≤ 0.026
- A14C G28U G67C G88C — lower, ≤ 0.026
- A14C G28U U35A U55G — lower, ≤ 0.026
- A14C G32C — lower, ≤ 0.026
- A14C G32C A54G A60C C64U — lower, ≤ 0.026
- A14C G32U G85U — lower, ≤ 0.026
- A14C G59A U70G — lower, ≤ 0.026
- A14C G59C G85A — lower, ≤ 0.026
- A14C G65A — lower, ≤ 0.026
- A14C G65C C80G A87C — lower, ≤ 0.026
- A14C G67C C68U A87C — lower, ≤ 0.026
- A14C G67C C75G — lower, ≤ 0.026
- A14C G85U — lower, ≤ 0.026
- A14C U16A — lower, ≤ 0.026
- A14C U16C — lower, ≤ 0.026
- A14C U16C U17G C34U U70A — lower, ≤ 0.026
- A14C U16G — lower, ≤ 0.026
- A14C U17C C75U G84C — lower, ≤ 0.026
- A14C U17G — lower, ≤ 0.026
- A14C U20A C79G — lower, ≤ 0.026
- A14C U21A — lower, ≤ 0.026
- A14C U35A — lower, ≤ 0.026
- A14C U35G — lower, ≤ 0.026
- A14C U57A C72A — lower, ≤ 0.026
- A14C U57A G66U U70C — lower, ≤ 0.026
- A14C U57G — lower, ≤ 0.026
- A14C U70A G73C — lower, ≤ 0.026
- A14C U71A — lower, ≤ 0.026
- A14C U71G — lower, ≤ 0.026
- A14G A23C — lower, ≤ 0.026
- A14G A23C G88U — lower, ≤ 0.026
- A14G A23G A74C — lower, ≤ 0.026
- A14G A23G C34U A54C C56U — lower, ≤ 0.026
- A14G A23U — lower, ≤ 0.026
- A14G A24C — lower, ≤ 0.026
- A14G A24C A31G C56G — lower, ≤ 0.026
- A14G A24C G32A A74G — lower, ≤ 0.026
- A14G A24G — lower, ≤ 0.026
- A14G A24U G59A — lower, ≤ 0.026
- A14G A30C G61C A74G — lower, ≤ 0.026
- A14G A30C U63G — lower, ≤ 0.026
- A14G A30G A31G G69A — lower, ≤ 0.026
- A14G A30G G88C — lower, ≤ 0.026
- A14G A30U A54C G65A — lower, ≤ 0.026
- A14G A30U U58G — lower, ≤ 0.026
- A14G A31C C72G — lower, ≤ 0.026
- A14G A31U C83G G85U — lower, ≤ 0.026
- A14G A33G G69C — lower, ≤ 0.026
- A14G A33U — lower, ≤ 0.026
- A14G A33U C56G U76A — lower, ≤ 0.026
- A14G A54G — lower, ≤ 0.026
- A14G A54U — lower, ≤ 0.026
- A14G A62C C83G — lower, ≤ 0.026
- A14G A62G — lower, ≤ 0.026
- A14G A62G G67U — lower, ≤ 0.026
- A14G A62U G66C — lower, ≤ 0.026
- A14G A87G — lower, ≤ 0.026
- A14G A89C — lower, ≤ 0.026
- A14G C27A U35A — lower, ≤ 0.026
- A14G C27G A60C G88A — lower, ≤ 0.026
- A14G C27U — lower, ≤ 0.026
- A14G C27U C29U U70G — lower, ≤ 0.026
- A14G C29A A60C — lower, ≤ 0.026
- A14G C29A G65A — lower, ≤ 0.026
- A14G C29G C83A — lower, ≤ 0.026
- A14G C29G G73A — lower, ≤ 0.026
- A14G C56A C81G — lower, ≤ 0.026
- A14G C64A — lower, ≤ 0.026
- A14G C64A C68G G78A — lower, ≤ 0.026
- A14G C64A G65A — lower, ≤ 0.026
- A14G C64G A87G — lower, ≤ 0.026
- A14G C77G — lower, ≤ 0.026
- A14G C79G — lower, ≤ 0.026
- A14G C80U — lower, ≤ 0.026
- A14G C83G G86A — lower, ≤ 0.026
- A14G G15A C56U G61U G69U U71G — lower, ≤ 0.026
